The supplement of paper PMC11417369
The list shows a part of the results.

These sequences were tested on PfAP2-HC AP2 domain (GST-tagged) (assay: gcPBM binding intensity (ln(normalized median fluorescence intensity)); higher = stronger DNA binding).
Procedure, shortened: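 Binding of GST-tagged P. falciparum DNA-binding domains, expressed in E. coli and used at about 25 μg on average, was carried out for 1 h in 1× PBS containing 1% milk, 0.2 mg/ml BSA, 0.5% salmon testes DNA and 0.03% Triton X-100. The target was an Agilent 4 × 180k array of primer-extended double-stranded 36-bp intergenic genomic probes plus negative controls, read with Alexa488 anti-GST antibody at 488 nm. Binding intensity is the highest Masliner-normalised natural-log median intensity across replicate spots of either probe orientation.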

Sequence | gcPBM binding intensity (ln)
TATTCTTACAAAAGTAGTACAATCATTCATATTTTT [XGTACX_site631] | 9.66
TAGTTTCAAGTAGGACGTACATATAAAAGGATTTTT [XGTACX_site7136] | 9.6
TATATATATATAATTGTGCACATAATTTTAAACCAA | 9.64
AATTAAAAAAGTAATTAACACACAATAATGTAATGC [CACACA_site9388] | 10
GTTCTGTAAATACGTGCACACACAAATCACAAATGT [CACACA_site7999] | 10.1
AAAGAAATGAAATATACACACATACATATATACATA [CACACA_site9335] | 10.4
GATATATTTTATATATGTACATACAATGGTAAATAT [XGTACX_site2759] | 9.66
TTTTTTTTCTTTTTTTGTACATAATAATATATAAAT [XGTACX_site6778] | 9.59
AAAAAAAAAAAAAAAACATGCAATAAAGTGTGCGTA [TGCATGCA_site982] | 9.61
TTTTGGTGGGTTACAAGTACTCAAAATGGATTGTTA [XGTACX_site1951] | 9.61
TTAAATATATGTAATACGCACACTTAATATTTTGAG [CACACA_site4170] | 9.63
TTTCGAAAAACAACAAGAAAAAAAAAAAAAAAAAAA [XGTACX_negctrl_site449] | 8.74
TCACATACATTACTTACACACCATATTGATATATAC [CACACA_site6353] | 10
TATCTCATAGTATACACACACACACGCGCACATATA [CACACA_site6917] | 10.5
TGTATATATTATATTTGTACATATAAAACTATATGT [XGTACX_site4782] | 9.62
TTATTTTTTAAAAGTAGTACAAATTTTTATAGAAAA [XGTACX_site7407] | 9.21
ATTCCTTGGTTGTATAGTACTTTGGTTAAACATAAA [XGTACX_site6967] | 9.55
CAATATTTGTTATGGGTGCAAACCGCATATATATAA [GTGCAC_site9543] | 9.57
ATTAAATCCGCACGCACACACACATATTAATAAAAA [CACACA_site3992] | 11.1
TAAAAAAGAAAATATATACACACCAAAAAAAAAAAA [CACACA_site3146] | 9.79
AAACAAAAAAATTGAAATAAAATGAAGTAAATGAAC [TGCATGCA_negctrl_site129] | 9.78
ACATGTCTTAAAAGACGTACATATAAAAGAACCCTA [XGTACX_site8940] | 9.76
AATATTAAAGAATAATGTACAAAATAAAAGCAAAGA [XGTACX_site3550] | 10.6

Sequence | gcPBM binding intensity (ln)
TATTAATTTCACCTTTCACATATGGAAAAAAAAAAA [CACACA_negctrl_site1243] | 9.27
AATGTGCACACGCGTACACACAAAAAAAGAAAAAAA [CACACA_site7031] | 10.1
TATTATTTGAGTAGTTGTACTCATTAATATATAAAA [XGTACX_site3468] | 9.35
ATTAACATTTTCGTATGTACATATATAATATATGTT [XGTACX_site7184] | 9.93
ATGTTTATTTATTTATGTACTTATATATTTATATAT [XGTACX_site7924] | 9.93
AATAAAAATAAAAATTGTACACTTTTTTAATATTTA [XGTACX_site892] | 9.5
TTTCCAAATACAACTACACACAAACAAAAATTATAT [CACACA_site4641] | 10.2
CAAAATATTTATATCACACATATAAATAAAAATAAA [CACACA_site6028] | 9.74
TTTTGATATATGAATATTAAGTTATATAATATTTTA [TGCATGCA_negctrl_site39] | 9.46
AATTTAATTGTGAGAGTGCGTACTGCTCCACATATA | 9.54
TATATATATAAATACACACACACAAAAAAAAAAAAA [CACACA_site4930] | 10.5
ATGTGTTTGTATATATGTACATATTTATGTTATTTC [XGTACX_site6960] | 10.3
AAAAAAAAAAAAAAAAAAAAAAAAAAATGAGATACA [GTGCAC_negctrl_site160] | 9.25
TATAACAAATAAAAATGTACATATATATAATATATA [XGTACX_site6173] | 9.81
ATCTTATCATTTTAAAGTACATAATTAATTCTTTTT [XGTACX_site3999] | 9.66
ATAATACCAGAATAGATTTAAATGAATATTTTATTT [CACACA_negctrl_site476] | 9.59
ATGATATATTTAATAGTGCACTAATTAAAATTATTA [GTGCAC_site9418] | 9.46
AAAAGGATATATGAAAGTACAAAGGTATAGTATATT [XGTACX_site7385] | 9.85
TACAGTAAAAATAGTTGTACTTGTTTATTTCTTCTT [XGTACX_site7674] | 9.51
TAAAATATAATGATCACACATATAAACAAGTGGGTA [CACACA_site4651] | 9.8
TATTCTAGAATTTTAACACACAAGAATATAAACTTT [CACACA_site6757] | 9.56
ATTTTTAAATACAGTACACACATGGGTTTAAATTAT [CACACA_site2884] | 9.7
GGTTATATGATAGGATGTACAATTAAAAGTAAATAT [XGTACX_site5083] | 9.66

Sequence | gcPBM binding intensity (ln)
TCCTATAAACAAATTTGTACATATAAGAATATATTC [XGTACX_site3892] | 9.55
TTATTATTCTTAAGGATATAACAAAAAAGAAAAATT [CACACA_negctrl_site1402] | 9.41
TATTTATATTTATATACACACATATATACCTATATA [CACACA_site7820] | 9.95
GATTATTTTAGAAGTACACACATTTATATATAATAA [CACACA_site5429] | 9.62
TATAAACGCACCTACACACACAACGTAAATGCATTG [CACACA_site7120] | 10.1
TGAACATTATAGAAAAGTACTTAGTTTTTAAAAAGA [XGTACX_site6864] | 9.62
TATTCAAAACGGTATTGTACAAATTTTATAATTTAA [XGTACX_site6928] | 9.45
GCCGCACCCAGATACGCACACAAGAAAAAAATATTC [CACACA_site3456] | 9.8
TATGGATAAATAAATACACACATAAATTTAAATATA [CACACA_site1282] | 9.86
AAATTATAAAAATGTAGTACAGACAATATATTCGTA [XGTACX_site8307] | 9.82
ATAAATATTATTTTACGTACATATTTATGAAGTATT [XGTACX_site8746] | 9.58
CAGGAGAGAAAATATCGTACAAGCAAAAATAAGTGG [XGTACX_site8557] | 9.82
GTTTATATGTTCATAGTGCATATATGTTGATTTATT | 9.89
TTTTTTTTTTTTTACTGTACTTAATAAGATTGAATA [XGTACX_site2384] | 9.12
TATAAAAAAAAAAAAAAAAAAAAAAAAAAAAAAAAA [TGCATGCA_negctrl_site42] | 8.96
TATTATTTTAAGATTGTTTATGTAAAGAATTATGAA [CACACA_negctrl_site445] | 9.16
TGTGTATATATGCTGGTGCAACTTTAAAAAATAATC | 9.59
AAATTATATACCACAGTGCAAAAGGCAGGTATACGT | 9.91
GTAGAGAAAAAAATGTGGACACAAAAAATAAAAAGG [XGTACX_site4058] | 9.79
TTTTTTTTTTTTTGCACACACATATATAAATATATA [CACACA_site3949] | 9.91
TATATTGCAAAAAGTACACACATAAATAAATACATA [CACACA_site6589] | 9.92
AGTAGTCTGGAGAAGAGTACATAGTATCTGGTAGCT [XGTACX_site2017] | 9.72
CTACACACTTATAAATGTACAGGATTTAAGTATATG [XGTACX_site8245] | 9.62

Sequence | gcPBM binding intensity (ln)
TATTTATTTATTTTGTTATAATTAAAATGGATACAT [XGTACX_negctrl_site387] | 9.48
TAACTTAATAAAAAAAGTACATATATTTTTAATAAA [XGTACX_site2707] | 9.21
AGTGAATATTACGAAACACACAAAAAAATACATTTC [CACACA_site511] | 10.1
AAATATAATAATACATTGCACATATATTATATATAT [TGCATGCA_negctrl_site611] | 9.69
TGTAATAATCTTCATTTCTTTTTTTTTTTTTTTTGT [CACACA_negctrl_site1388] | 9.32
TTTGATAAATGATACACACACAATATTTATAAAATA [CACACA_site7040] | 10.1
ACATTATATAAATATATACATATATATATATATAAA [GTGCAC_negctrl_site115] | 9.5
CCCACGTATATTTTGTGTACATAAATAAATAAATAA [XGTACX_site4046] | 9.46
TCTATTATCCTTTGCACACAAAATAAATGAAAAAAT [CACACA_site3029] | 9.66
ATATAAGTTTTTTCTCAAAAAGTATAACGAGCATGA [CACACA_negctrl_site1375] | 9.65
AAACAACAAAAATGATATATATAAAATTTATAATAT [XGTACX_negctrl_site185] | 9.7
TATTTAATTATATAAAATTAAATTTTTAATTCTTCC [CACACA_negctrl_site473] | 9.16
ATGCATAAAAGAAATACACACATAAATATATAAATA [CACACA_site2163] | 9.99
TATGGATTACACAATTGTACAAGAAAAATGTAAATA [XGTACX_site4040] | 9.76
TGTCATGATACATACACACACATACACATACACATA [CACACA_site2135] | 10.2
TTTTTTTCATAATATACACACAAAAAAAAAAAAAAA [CACACA_site3224] | 9.26
ATATATATATATATGTGTACATATATATATCATATG [XGTACX_site3126] | 9.68
TATACTCATATATAAACACACAAAAAAAAAAAAAAA [CACACA_site5165] | 9.66
ATACGAAAATATTTTGCACACTATAATTATTCATAT [CACACA_site1765] | 10.1
TTTCCCTACCAAAAGTGTACTTATACATATTTTTAT [XGTACX_site5495] | 9.78
